From publication PMC3559651, “Functional Roles of the Non-Catalytic Calcium-Binding Sites in the N-Terminal Domain of Human Peptidylarginine Deiminase 4” (PLoS ONE, 2013)

B1: human PAD4 N153A (enzyme)
chain: not shown
notes: peptidylarginine deiminase 4 (PAD4), human; cDNA in pQE30, site-directed mutant; same vector as the wild type; source: E. coli JM109, purified (Ni-NTA)
B2: human PAD4 D157A (enzyme)
chain: not shown
notes: as for B1
B3: human PAD4 D179A (enzyme)
chain: not shown
notes: as for B1
B4: human PAD4 D155A (enzyme)
chain: not shown
notes: as for B1

Target: the molecule itself
Assay: AUC; sedimentation velocity; enzymes 0.3 mg/ml in 30 mM Tris-acetate (pH 7.4) at 25°C for 16 h, run at 20°C, 42,000 rpm; continuous size distribution (SEDFIT)

Stoichiometry N, 2:
B1, B2, B3, B4
